Laboratory results published in PubChem BioAssay AID624296 (National Center for Advancing Translational Sciences (NCATS), 2012).
The whole screen tested about 350,000 compounds, of which about 9,900 (2.8%) were called active. This list was built around the results that the source calls inconclusive (neither active nor inactive); the mix of calls is not that of the screen. The call rests on the fitted dose curve; in most records, active means well fitted activation curve with a large enough effect; inconclusive means small, poorly fitted or top-dose-only effect; inactive means no such curve, though single readings can be large or run the other way. No potency is given beside an inconclusive call; the fits are too rough.

Test: A quantitative high throughput screen for small molecules that induce DNA re-replication in MCF 10a normal breast cells. Further: nearly all actives have a fitted effect of over 50% in size.
Details: MCF 10A DNA re-replication, Hoechst nuclear intensity, 48 h; series mostly up to 46.1 µM
Potency means the concentration at half of the fitted maximal effect; tags describe the fitted curve by direction and shape.

Row | Structure (SMILES) | Potency
1 | COc1ccc(N(Cc2nnc3n2CCCCC3)C(=O)Nc2ccccc2)cc1 | inconclusive [activator, full curve, poor fit]
2 | C=CCn1c(SC)nc2sc3c(c2c1=O)CCc1ccccc1-3 | inconclusive [activator, full curve]
3 | CC(=O)c1cnc(Nc2cccc(C)c2)s1 | inactive
4 | CCOC(=O)c1sc(-c2cccc(C(F)(F)F)c2)nc1O | inconclusive [activator, single point]
5 | CC(NC(=O)/C(C#N)=C/c1cccs1)c1ccccc1 (centres undefined) | inactive
6 | COc1cccc(NCc2cc3c(C(C)(C)C)nn(-c4ccccc4)c3[nH]c2=O)c1 | inconclusive [activator, single point]
7 | CCc1cc2c(=O)nc3n(c2s1)Cc1ccccc1/C3=C(/O)c1ccccc1Cl | active: 6.51 µM
8 | N#C/C(=C\c1ccccc1[N+](=O)[O-])C(=O)NC1CCCCC1 | inconclusive [activator, single point]
9 | Cc1ccc(-c2cc(N)nc(-c3ccccc3)c2)cc1 | inconclusive [activator, single point]
10 | COc1ccc(N=c2oc3ccc(OC)cc3cc2-c2nc3ccccc3[nH]2)cc1 | inconclusive [activator, single point]
11 | Cc1csc2nc(CSc3nncn3-c3ccccc3)c(Br)n12 | inconclusive [activator, partial curve, poor fit]
12 | Fc1cnc(N2CCN(c3ccccc3)CC2)nc1N1CCN(c2ccccc2)CC1 | inconclusive [activator, partial curve, poor fit]
13 | C=CCC[C@@H](Cc1ccc(F)cc1)C(=O)OCCNC(=O)[C@@H](CC=C)CC(=O)N(CCO)Cc1ccccc1 | inconclusive [activator, partial curve, poor fit]
14 | CC1=NN(c2ccc(C(=O)O)cc2)C(=O)CC1 | inconclusive [activator, partial curve, poor fit]
15 | O=C(NCC(=O)N1CCN(c2ncccn2)CC1)c1ccc(F)cc1 | inactive
16 | COc1ccc(Nc2nc(-c3sc(C)nc3C)cs2)c(OC)c1 | inconclusive [activator, single point]
17 | O=C(c1cc2ccccc2o1)N1CCN(c2ccccc2Cl)CC1 | inconclusive [activator, partial curve, poor fit]
18 | CCOc1ccc(S(=O)(=O)N(CC(=O)N2CCC(C(N)=O)CC2)c2ccc(F)cc2)cc1 | inactive
19 | CCCN(CCC)C1=N/C(=C\c2ccco2)C(=O)N1c1ccccc1 | inconclusive [activator, single point]
20 | O=S1(=O)CCOC[C@H](Cc2ccccc2)N1Cc1ccccc1 | inconclusive [activator, partial curve, poor fit]
21 | Cc1ccc(SCc2ccc(C(=O)N3CCCC3)cc2)cc1 | inconclusive [activator, full curve, poor fit]
22 | Cc1cc(C)c2c(N)c(C(=O)Nc3ccccc3F)sc2n1 | active: 29.1 µM

Row | Structure (SMILES) | Potency
23 | O=C(CCN1CCN(C(=O)c2ccccc2)CC1)c1ccc(Br)cc1 | active: 16.4 µM
24 | CCN1CCN(S(=O)(=O)c2ccc(Cl)c(C(=O)NCc3nc4ccccc4[nH]3)c2)CC1 | inconclusive [activator, single point]
25 | Nc1ccc(S(=O)(=O)c2cc(O)c3ccccc3c2O)cc1 | inconclusive [activator, single point]
26 | Cc1ccc(S(=O)(=O)N(C)C[C@@H]2Oc3ccc(NS(=O)(=O)c4ccccc4)cc3CC(=O)N([C@@H](C)CO)C[C@H]2C)cc1 | inconclusive [activator, single point]
27 | COC(=O)c1ccc(COc2ccc(-c3nnn(CC(=O)NC(C)(C)C)n3)cc2)cc1 | inconclusive [activator, single point]
28 | COc1ccc(-c2nnn(CC#N)n2)cc1OC | inactive
29 | Cc1ccc(C)c(C(=O)CN2C3=NCCCN3c3ccccc32)c1 | inconclusive [activator, single point]
30 | COc1ccc(NS(=O)(=O)c2cccc(C(=O)Nc3ccccc3C(=O)O)c2)cc1 | inactive
31 | Cc1ccccc1NC(=S)Nc1ccc(Br)cc1 | inactive
32 | COc1cc(C2C(C(=O)c3ccc(C)o3)=C(O)C(=O)N2CCc2ccccc2)ccc1O (centres undefined) | inactive
33 | COc1nc(N/N=C/c2cc3c(cc2Br)OCO3)nc(N2CCOCC2)n1 | inconclusive [activator, partial curve, poor fit]
34 | O=C(CN1CCN(S(=O)(=O)c2ccccc2)CC1)Nc1ccccc1Cl | inconclusive [activator, partial curve, poor fit]
35 | O=C(C1=C[C@H](c2csc3ccccc23)C[C@H](OCc2ccc(CO)cc2)O1)N1CCN(Cc2ccccc2)CC1 | inconclusive [activator, full curve, poor fit]
36 | Cc1cccc(C(=O)NCC(=O)N(C)CC(=O)Nc2ccc(N3CCOCC3)cc2)c1 | inactive
37 | COc1ccc2[nH]c3c(c2c1)CCNC3c1ccc([N+](=O)[O-])o1 (centres undefined) | inactive
38 | O=[N+]([O-])c1ccc(O)c(C2=NNC(c3ccccc3F)C2)c1 (centres undefined) | active: 3.66 µM
39 | Cc1ccc(NC(=S)N(CCCN2CCCC2)Cc2cccn2Cc2ccc(Cl)cc2)cc1C | inconclusive [activator, single point]
40 | COc1ccc(/C=C/C(=O)CC(O)(c2ccccc2)C(F)(F)F)cc1 (centres undefined) | inconclusive [activator, single point]
41 | O=C(Nc1ccccc1C(=O)Nc1nncs1)c1ccccc1 | inconclusive [activator, single point]
42 | CCOC(=O)c1c(NC(=O)COC(=O)c2cnccn2)sc(C)c1C | inactive
43 | O=C(O)c1cc2c(s1)-c1ccccc1CC2 | inactive
44 | COCCCNC(=O)CC1C[C@H](C(=O)N2CCOCC2)[C@@]2(CCC3CCCC3)c3[nH]c4ccc(OC)cc4c3CCN2C1=O (some centres undefined) | inactive
